Experimental data as given in PMC4336329 (PLoS ONE, 2015).
In all, about 310,000 compounds went through this assay and about 14,000 (4.5%) showed an effect of 50% or more. The effect is printed as a negative number. This is one part of the list.

Molecular target: human ether-à-go-go-related gene (hERG) potassium channel (human, UniProt Q12809)
Experiment: primary screen, population patch clamp on CHO cells stably expressing hERG
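Also: peak tail current of the secondary pulse compared with the same well before compound.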

human ether-à-go-go-related gene (hERG) potassium channel, sequence (Q12809 whole entry, looked up): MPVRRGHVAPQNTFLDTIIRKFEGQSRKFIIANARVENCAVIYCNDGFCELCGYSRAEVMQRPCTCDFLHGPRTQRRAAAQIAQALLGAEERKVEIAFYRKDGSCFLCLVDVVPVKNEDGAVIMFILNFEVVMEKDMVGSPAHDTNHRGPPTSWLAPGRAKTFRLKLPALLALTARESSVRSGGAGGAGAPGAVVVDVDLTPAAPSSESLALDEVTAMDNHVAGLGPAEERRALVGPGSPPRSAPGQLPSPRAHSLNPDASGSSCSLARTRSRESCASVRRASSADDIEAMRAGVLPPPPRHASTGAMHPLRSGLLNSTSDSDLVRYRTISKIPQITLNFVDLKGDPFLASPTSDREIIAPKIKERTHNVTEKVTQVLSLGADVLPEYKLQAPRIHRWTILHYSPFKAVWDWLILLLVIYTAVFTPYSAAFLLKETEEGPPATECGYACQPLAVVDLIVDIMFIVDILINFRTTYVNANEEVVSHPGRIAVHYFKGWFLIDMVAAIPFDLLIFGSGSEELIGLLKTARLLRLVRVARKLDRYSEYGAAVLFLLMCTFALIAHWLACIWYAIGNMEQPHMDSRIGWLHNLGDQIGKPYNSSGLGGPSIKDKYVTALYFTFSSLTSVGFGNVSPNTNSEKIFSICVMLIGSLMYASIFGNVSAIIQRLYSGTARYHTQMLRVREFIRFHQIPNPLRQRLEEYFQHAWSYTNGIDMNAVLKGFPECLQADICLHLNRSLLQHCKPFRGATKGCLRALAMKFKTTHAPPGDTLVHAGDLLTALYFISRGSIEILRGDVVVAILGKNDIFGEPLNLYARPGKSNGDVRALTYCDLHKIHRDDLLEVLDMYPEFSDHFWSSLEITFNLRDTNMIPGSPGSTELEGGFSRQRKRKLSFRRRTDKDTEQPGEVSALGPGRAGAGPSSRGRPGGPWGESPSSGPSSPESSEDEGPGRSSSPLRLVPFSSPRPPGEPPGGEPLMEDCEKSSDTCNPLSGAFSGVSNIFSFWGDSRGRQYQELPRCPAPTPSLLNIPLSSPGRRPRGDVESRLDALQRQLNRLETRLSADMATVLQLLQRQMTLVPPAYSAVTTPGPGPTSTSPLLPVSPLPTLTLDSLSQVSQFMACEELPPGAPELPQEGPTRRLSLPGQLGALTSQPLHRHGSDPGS

SMILES | hERG current change (%, negative = inhibition) at 10uM [%]
COc1cc(/C=N/NC(=O)c2cc(-c3ccccc3Cl)nc3ccccc23)cc(OC)c1O | -12.3
COc1ccccc1-c1ccc(=O)n(CC(=O)NC2CCc3ccccc32)n1 (stereo not drawn) | 5.88
Br.NC1CCc2cc(O)c(O)cc2C1 (stereo not drawn) | 11.2
N#Cc1ccc(N2Cc3ccccc3C2=NC(=O)c2cccs2)cc1 | -36.1
CCOC(=O)C1=C(C)N=c2s/c(=C/c3ccc(OCC(=O)O)cc3)c(=O)n2C1c1cc(OC)c(OC)c(OC)c1 (stereo not drawn) | -4.27
CC(=O)N1CCN(S(=O)(=O)c2ccc(C)cc2)C1C(C)C (stereo not drawn) | 1.23
CCNc1nc(NC(C)C)nc(N(C#N)CCOc2ccc(Cl)cc2Cl)n1 | -1.33
CCCC/S(CC1CC1(Cl)Cl)=N\S(=O)(=O)c1ccc(C)cc1 (stereo not drawn) | -8.74
Nc1nc(Nc2ccccc2F)sc1C(=O)c1ccccc1 | 2.71
COC(=O)c1c(C)n(-c2ccc(OC)cc2)c2ccc(O)cc12 | 11.1
Cc1cc(-n2nc(C)cc2C)nc(NS(=O)(=O)c2ccccc2)n1 | 17.6
Cc1cc(C(=O)N/N=C/c2ccc(-c3cccc(Cl)c3Cl)o2)n[nH]1 | 12.4
CCOc1ccc(CN(C)C(=O)CNC(=O)Cc2cccc3ccccc23)cc1 | 10.2
Cc1ccc(COc2coc(CN3CCN(C(=O)c4ccco4)CC3)cc2=O)cc1 | -48.4
COc1ccc(CCn2c(O)c(/C=N/N3CCOCC3)c(=O)[nH]c2=O)cc1OC | 7.53
CC(C)c1ccc(/C=C2\SC(N3CCCC3)=NC2=O)cc1 | -37.1
Cc1ccc(N(CC(=O)N2CCCC2)S(C)(=O)=O)cc1C | 3
NC(Cc1ccc(Oc2ccc(O)cc2)cc1)C(=O)O (stereo not drawn) | 3.45
Cc1c(NC(=O)COc2cccc(Br)c2)c(=O)n(-c2ccccc2)n1C | -27.9
CCOc1cc(C=O)ccc1OCC(N)=O | 4.46
Cn1cnc2c(NCc3ccco3)ncnc21 | 4.65
CC1CCCCN1S(=O)(=O)c1ccc2c(c1)CCN2C(=O)CCC(=O)O (stereo not drawn) | 1.03

SMILES | hERG current change (%, negative = inhibition) at 10uM [%]
CN1CCN(C(=O)c2ccc(Cl)cc2)CC1 | 8.8
O=S(N1CCc2ccccc21)C12CC3CC(CC(C3)C1)C2 (stereo not drawn) | -6.09
Cc1cc(NC(=O)CSc2nnc(-c3ccncc3)n2C)n(-c2ccccc2)n1 | -21.9
CCCOP(=O)(c1ccc(N(C)C)cc1)C(O)c1ccc(Cl)cc1Cl (stereo not drawn) | -54.9
CNS(=O)(=O)c1ccc(-c2ccc(C=C3C(=O)NC(=O)NC3=O)o2)cc1 | -1.86
O=C(CC1Sc2ccccc2NC1=O)OCC(=O)N1CCc2ccccc21 (stereo not drawn) | -0.0853
Cc1cc2ncn(C(=O)c3c(-c4c(Cl)cccc4Cl)noc3C)c2cc1C | 11.6
CC(=O)N1CCN(C(=O)CCc2nnc(CCCCc3ccccc3)o2)CC1 | 6.86
CCCCn1c(CCNC(=O)CCC)nc2ccccc21 | -7.83
NNC(=O)C1CC1c1ccc(Cl)cc1 (stereo not drawn) | 9.11
CC(=O)NC(Cc1c[nH]c2ccccc12)C(=O)N1CCc2ccccc2C1 (stereo not drawn) | -2.21
C[C@@H](C(=O)NC1CCN(Cc2ccccc2)CC1)N1C(=O)N2CCc3c([nH]c4ccccc34)[C@@]2(C)C1=O | -77.8
Cc1ccc(C(=O)CCC(=O)O)cc1 | 7.54
CC1(C)CC(=O)C=C(C(=O)NC2CCCc3c2cnn3-c2cc(F)cc(F)c2)O1 (stereo not drawn) | -2.03
CN(c1ccccc1C(=O)Nc1ccccc1-c1ccccc1)S(C)(=O)=O | 19.8
CCOC(=O)c1c(C)oc2c1c(C=NCCC(=O)O)c(O)c1ccccc12 | 20.5
Nc1nnc(SCC(=O)N2CCN(c3ccccc3)CC2)s1 | -0.188
Cc1ccc(CNc2cnn(C34CC5CC(CC(C5)C3)C4)c(=O)c2Cl)cc1 | -8.85
Cc1ccc(CN2CCC(c3cc(-c4ccc(Cl)cc4)n[nH]3)CC2)cc1 | -78.8
CC(NC(=O)Nc1ccccc1C(F)(F)F)C1CCCO1 (stereo not drawn) | 27
CN(C)S(=O)(=O)N1CCN(C(=O)N(c2ccccc2)c2ccccc2)CC1 | 10.3
COCCOC(=O)C1=C(C)Nc2cc(=O)[nH]c(=O)n2C1c1cccc([N+](=O)[O-])c1 (stereo not drawn) | 14.4

SMILES | hERG current change (%, negative = inhibition) at 10uM [%]
O=C(COC(=O)COc1cccc(C(F)(F)F)c1)NC1CCCC1 | 6.47
COc1ccccc1CNC(=O)COc1ccccc1C(=O)c1cnn(-c2ccccc2)c1 | -9.74
COCCn1c(SCC(=O)OCc2ccccc2)nc2c1c(=O)[nH]c(=O)n2C | -25.6
CCC(C)C(NC(=O)c1ccccc1NC(=O)c1ccccc1)C(=O)N1CCOCC1 (stereo not drawn) | 7.47
O=C(CSc1nnc2scc(-c3ccc(Cl)cc3)n12)NCc1ccc2c(c1)OCO2 | -23.2
O=C(c1ccc(Br)cc1)C12CN3CN(CN(C3)C1)C2 | 49.6
CCCn1nc(C(=O)NNC(=O)c2cccc(S(=O)(=O)NC(C)C)c2)c2ccccc2c1=O | 6.09
CCOC(=O)c1cccc(N2C(=O)C3C(C2=O)C2C=CC3C23CC3)c1 (stereo not drawn) | -0.00282
COC(=O)c1ccccc1NC(=O)CNC(=O)c1ccco1 | 19.3
CC(CCc1ccccc1)NC(=O)CN1CCN(Cc2ccc(Cl)cc2)C1=O (stereo not drawn) | -53.2
O=C(c1ccc(S(=O)(=O)N2CCCC2)cc1)N1CCN(c2ccccc2F)CC1 | 18.8
O=C(CSc1nnc(-c2ccccc2F)o1)OCc1ccccc1 | 5.34
Cc1ccc(-n2nc3c(c2NC(=O)/C=C\c2ccc4c(c2)OCO4)CSC3)cc1 | 4.46
O=C1CCC(C(=O)Nc2cccc(Oc3ccccc3)c2)=NN1 | -10.5
CC(=O)Nc1ccc(C(=O)N/N=C/c2ccccc2OCc2ccccc2)cc1 | 29.2
Cc1ccc(S(=O)(=O)NCCC(=O)NNC(=O)COc2ccc(Br)cc2)cc1C | 5.27
COc1ccc(C(=O)/C=C/c2ccc(O)cc2)cc1 | -9.87
Cc1ccc(C)c(-n2cc(CNC(C)Cn3cncn3)c(-c3ccccc3)n2)c1 (stereo not drawn) | -45.6
CC(C)(C)CN1CCN(Cc2nc(-c3ccc(F)cc3)cs2)CC1CCO (stereo not drawn) | -62.5
O=C(Nc1ccccc1Cl)c1ccc(=O)[nH]n1 | 8.03
COc1cccc(N2CCc3c(C)nc4ccc(Cl)cc4c32)c1 | -72.9
COc1ccc(CN2CC(C(=O)NCCCN3CCCCC3)CC2=O)cc1 (stereo not drawn) | -10.7

SMILES | hERG current change (%, negative = inhibition) at 10uM [%]
CCOC(=O)C1=C(O)/C(=C\c2sccc2C)N=C1C | 4.53
COc1ccc(S(=O)(=O)N(C)C)cc1NC(=O)Cc1cccs1 | -6.99
Cc1ccc(S(=O)(=O)NNC(=O)NC23CC4CC(CC(C4)C2)C3)cc1 | -3.89
O=C(Nc1ccccc1)N1CCSc2ccccc21 | -15.9
Cc1cccc(Cc2nnc(CCC(=O)N(C)C3CCOC3)o2)c1 (stereo not drawn) | 18.6
CC(C)=Cc1oc2ccc([N+](=O)[O-])cc2c1N1CC(C)OC(C)C1 (stereo not drawn) | 18.7
Cc1ccccc1NC(=O)c1ccc(Nc2c([N+](=O)[O-])cc([N+](=O)[O-])c3ccccc23)cc1 | 9.29
Cc1c(C)n2c(SCC(=O)NCc3ccc4c(c3)OCO4)nnc2[nH]c1=O | 7.88
N/C(COc1ccccc1)=N\NS(=O)(=O)c1ccccc1 | 10.6
NC1=NC(=O)/C(=C\c2ccsc2)S1 | 9.97
CCOC(=O)N1CCN(C(=O)CSCC(=O)Nc2nc(-c3cccs3)cs2)CC1 | -31.4
COc1ccc(C(=O)c2cc([N+](=O)[O-])ccc2N2CCN(C)CC2)cc1 | -58.2
COc1cc(C(=O)OCC(=O)NC(=O)C2CCCCC2)ccc1OC(F)F | 15.8
Cc1cc(C)c(C#N)c(SC(F)F)n1 | -2.52
O=C(NCc1ccc(F)cc1)C1CCC(CNc2c(N3CCCCC3)c(=O)c2=O)CC1 (stereo not drawn) | 17
NS(=O)(=O)c1ccc(CNC(=O)CCSCCC(=O)NCc2ccc(S(N)(=O)=O)cc2)cc1 | 12.5
CC(=O)O[C@H]1C(=O)[C@]2(C)[C@H]([C@H](OC(=O)c3ccccc3)[C@]3(O)C[C@H](OC(=O)[C@H](O)[C@@H](NC(=O)c4ccccc4)c4ccccc4)C(C)=C1C3(C)C)[C@]1(OC(C)=O)CO[C@@H]1C[C@@H]2O | -38.8
COc1cccc(NC(=O)c2ccc(-n3cnnn3)cc2)c1 | 5.31
Cc1cccn2c(NC(=O)c3cccs3)c(-c3ccccc3)nc12 | -3.77
CN(C)CCCOc1nn(Cc2ccccc2)c2ccccc12.Cl | -39.5
COc1ccc(NC(=S)Nc2ccccc2)c(OC)c1 | 12.4
